PubChem BioAssay AID2451 (National Center for Advancing Translational Sciences (NCATS), 2010)
Out of some 290,000 compounds screened, about 2,100 (0.72%) were called active. The inconclusive results got no clear call from the source; some entries with a clear call stand among them for comparison. Calls follow the shape of the dose curve; as a rule, active = well fitted inhibition curve with a large enough effect; inconclusive = small, poorly fitted or top-dose-only effect, or effect the other way; inactive = flat fitted curve, though single readings scatter. Potencies beside an inconclusive call are fits to weak or partial responses and may not hold up. The source holds several records for some structures; these can differ, active in one and inactive in another.

molecular target: Fructose-bisphosphate aldolase (Giardia intestinalis (strain ATCC 50803 / WB clone C6)) (UniProt A8B2U2); experiment: qHTS Assay for Inhibitors of Fructose-1,6-bisphosphate Aldolase from Giardia Lamblia; conditions: purified Giardia FBPA; activity, negative = inhibition: at 59.6 µM (top of the series) unless noted; also: nearly all actives have a fitted effect of over 55% in size
Sequence of UniProt A8B2U2 (A8B2U2 whole entry, looked up): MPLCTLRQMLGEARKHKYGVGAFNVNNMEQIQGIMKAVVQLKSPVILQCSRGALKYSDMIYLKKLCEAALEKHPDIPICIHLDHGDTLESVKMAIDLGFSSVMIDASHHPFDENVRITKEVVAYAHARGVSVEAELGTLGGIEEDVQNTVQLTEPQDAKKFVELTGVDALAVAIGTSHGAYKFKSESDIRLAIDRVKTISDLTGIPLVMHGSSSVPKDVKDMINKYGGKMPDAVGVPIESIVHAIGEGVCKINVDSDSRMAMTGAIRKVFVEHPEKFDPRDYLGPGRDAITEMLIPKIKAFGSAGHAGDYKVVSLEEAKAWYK
Method in brief: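 40 nM FBPA preincubated 10 min at RT with compound (up to 57.5 uM final), then substrate plus GAPDH/TPI/NAD/arsenate coupling and diaphorase/resazurin added. Fluorescence read after 20 min at RT, 525/598 nm.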
% is scaled to controls: 0 for no effect and ±100 for the full control effect; potency is read from the fitted curve at half-maximal effect; tags tell the direction and shape of the fitted curve.

Structure (SMILES)	Potency	activity, negative = inhibition
CC(C)(C)n1cn[nH]c1=S	inconclusive: 11.2 µM [inhibitor, partial curve]	
CCOC(=O)c1cnc2ccc(OCC)cc2c1NCc1ccccc1	inconclusive: 5 µM [inhibitor, partial curve]	
C=CCN1CCN(C(=O)c2oc3ccccc3c2C)CC1	inactive	
CCN=c1scc(-c2ccco2)n1/N=C/c1ccc(O)cc1	inactive	
O=C(Nc1cccc(Cl)c1)Nc1nnc(-c2ccccc2)o1	inconclusive: 31.5 µM [inhibitor, single point]	
C=CCn1c(-c2ccc(F)cc2)n[nH]c1=S	inconclusive: 4.46 µM [inhibitor, partial curve]	
CCOc1ccc(NC(=O)C(c2ccccn2)N(C(=O)CCl)c2ccc(OCC)cc2)cc1 (configuration not stated)	inconclusive: 15.8 µM [inhibitor, partial curve]	
CC(=O)NCCNc1ncnc2ccc(-c3ccc4c(c3)OCO4)cc12	inactive	
CC(C)C[C@H](NC(=O)c1[nH]cnc1C(=O)Nc1ccc(CNC(=O)OC(C)(C)C)cc1)C(=O)OCc1ccccc1	inconclusive: 15.8 µM [inhibitor, single point]	
COc1ccc(S(=O)(=O)N2CCOCC2)cc1NC(=O)Cc1c(Cl)cccc1Cl	inactive	
CCC(CO)NCC(O)COCc1ccc2c(c1)OCO2 (configuration not stated)	inconclusive: 19.9 µM [inhibitor, partial curve]	
CCOC(=O)CSc1nc(C)cc(=O)[nH]1	inconclusive: 28.2 µM [inhibitor, single point]	
Cc1cccc2nc(CSCc3ccco3)cn12	inconclusive: 20 µM [inhibitor, partial curve]	
Cn1cc(S(=O)(=O)CC(=O)Nc2ccc3c(c2)OCO3)c2ccccc21	inconclusive: 17.7 µM [inhibitor, single point]	
COc1cc(C2C3=C(CCCC3=O)Nc3c2c(C)nn3-c2cccc(C)c2)cc(OC)c1O (configuration not stated)	inconclusive: 5.61 µM [inhibitor, partial curve]	
Cc1cc(NC(=O)c2ccc([N+](=O)[O-])cc2)no1	inactive	
CO/N=C(/C(=O)N[C@@H]1C(=O)N2C(C(=O)O)=CCS[C@H]12)c1cnc(N)s1	active: 15.8 µM	
Cc1cc2cc(C(c3nnnn3Cc3ccco3)N3CCc4ccccc4C3)c(=O)[nH]c2cc1C (configuration not stated)	inconclusive: 17.7 µM [inhibitor, single point]	
O=C(NNC1CC(=O)N(c2ccc(Br)cc2)C1=O)c1ccccn1 (configuration not stated)	inconclusive: 19.9 µM [inhibitor, single point]	
COc1cc(C2C(C#N)=C(N)N(c3ccc(F)cc3)C3=C2S(=O)(=O)CC3)ccc1O (configuration not stated)	inconclusive: 15.8 µM [inhibitor, single point]	
COC1=CC(=O)C=C(OC)C1=O	active: 7.06 µM	
CCCOc1ccc(C(=O)NC(=S)Nc2nc(C)c(C(=O)N(C)C)s2)cc1	inconclusive: 9.98 µM [inhibitor, partial curve]	
Cc1ncc([N+](=O)[O-])n1C[C@H](O)CCl	inactive	
COc1cc(OC)c(C(=O)Nc2cccc3ccccc23)cc1OC	inactive	

Structure (SMILES)	Potency	activity, negative = inhibition
CCC(C)N1C(=O)NC(=O)C2(Cc3c(ccc4ccccc34)N(C)C2)C1=O (configuration not stated)	inconclusive: 12.6 µM [inhibitor, partial curve]	
C=CCNC(=S)/N=C/c1c(O)[nH]c(=O)[nH]c1=O	inconclusive: 17.7 µM [inhibitor, partial curve]	
Cc1ccc(-c2cn(-c3ccccc3)c3[n+]2CCCS3)cc1	inactive	
CCn1c(SCc2nc3ccccc3[nH]2)nnc1-c1cccs1	inconclusive: 12.6 µM [inhibitor, partial curve]	
Cn1c(=O)c(/C=C/c2ccc(F)cc2)nc2ccccc21	inactive	
Cc1ccc(-n2c(N)c(C(N)=O)sc2=S)cc1	inconclusive: 5.61 µM [inhibitor, single point]	
Cc1cccc(/C=N/NC(=O)CNc2cccc3ccccc23)n1	inconclusive: 3.97 µM [inhibitor, full curve]	
COC(=O)c1cccnc1NC(=S)NNC(=O)c1ccncc1	active: 7.06 µM	
CCN(Cc1ccncc1)Cc1ccc(Br)cc1	inconclusive: 15.8 µM [inhibitor, partial curve]	
O=C(Nc1ccc(Cl)cc1)N(Cc1cccs1)Cc1cccs1	inactive	
O=C1CNC(=S)N1CCc1ccc(O)c(O)c1	inconclusive: 19.9 µM [inhibitor, partial curve]	
O=C1/C(=C/c2ccc(F)cc2)CCC1C1CCCC1 (configuration not stated)	inactive	
COc1cc(C(=O)N2CCN(C(=O)c3cc(-c4ccc(Br)cc4)n[nH]3)CC2)cc(OC)c1OC	inactive	
CC(C)(C)c1ccc(C(=O)OCCN2CCCCC2)cc1	inactive	
O=C1C(Cl)=C(Nc2ccc(O)cc2)C(=O)c2ccccc21	inconclusive: 2.23 µM [inhibitor, full curve]	
CCOC(=O)c1c(NS(=O)(=O)c2cccc(OC)c2)sc2c1CCC2	inconclusive: 15.8 µM [inhibitor, partial curve]	
Cc1ccc2c(c1)nc(NCCCO)n2C	inactive	
O=[N+]([O-])c1ccc2c(c1Nc1ccccc1)=NC1(CCCCC1)N=2	inconclusive: 6.29 µM [inhibitor, partial curve]	
CC1(N2CCOCC2)CC2(O)C(=[N+]1[O-])CCc1nonc12 (configuration not stated)	inconclusive: 19.9 µM [inhibitor, partial curve]	
CCCN1C(=O)S/C(=C\c2ccc(N3CCOCC3)o2)C1=O	inconclusive: 9.98 µM [inhibitor, partial curve]	
COCCNC(=S)NC(=O)CC12CC3CC(CC(C3)C1)C2	inactive	
COc1cccc(CN2CCN(Cc3cc(OC)c(OC)cc3[N+](=O)[O-])CC2)c1	inconclusive: 6.29 µM [inhibitor, partial curve]	
O=C(NCCO)c1ccc2nc(-c3ccco3)c(-c3ccco3)nc2c1	inconclusive: 2.81 µM [inhibitor, partial curve]	
FC(F)(F)c1ccccc1CNCc1ccc2c(c1)OCO2	inconclusive: 15.8 µM [inhibitor, partial curve]	

Structure (SMILES)	Potency	activity, negative = inhibition
CCC(C)(C)c1nnc(NC(=O)c2cccc([N+](=O)[O-])c2)s1	inconclusive: 17.7 µM [inhibitor, partial curve]	
NS(=O)(=O)c1cccc(NC(=S)NC(=O)c2cccc([N+](=O)[O-])c2)c1	active: 17.7 µM	
CCCC(C(=O)NCc1ccco1)N(Cc1ccco1)C(=O)CNS(=O)(=O)c1ccccc1 (configuration not stated)	inactive	
COc1cc(CN2CCc3ccccc3C2)cc([N+](=O)[O-])c1O	inconclusive: 25.1 µM [inhibitor, partial curve]	
Cc1nn2c(N3CCN(C)CC3)c3c(nc2c1-c1ccccc1)CCCC3	inactive	
O=C1c2ccc3c4c(ccc(c24)C(=O)N1c1cccc(O)c1)C(=O)N(c1cccc(O)c1)C3=O	inconclusive: 1.77 µM [inhibitor, full curve, poor fit]	
O=C(Nc1cccc(F)c1)N1CCCC2(CCN(C(=O)Oc3ccccc3)CC2)C1	inactive	
O=C(O)C1(C(=O)O)CCC1.[NH2-].[NH2-].[Pt+2]	active: 14.1 µM	
C[n+]1ccc(/C=C/c2c[nH]c3ccccc23)cc1	inconclusive: 0.354 µM [inhibitor, full curve]	
O=C(CN1CCN(C/C=C/c2ccccc2)CC1)Nc1ccccc1C(=O)NC1CC1	inconclusive: 17.7 µM [inhibitor, partial curve]	
CCOC(=O)C1=C(C)N(c2ccc(C)cc2)C(=O)/C1=C\c1ccc(O)c(OC)c1	inconclusive: 14.1 µM [inhibitor, partial curve]	
Cc1cc(NCCCn2ccnc2)n2nc(-c3ccc(F)cc3)cc2n1	inactive	
Cc1ccc(C2c3c(oc4ccc(Cl)cc4c3=O)C(=O)N2CCCN2CCOCC2)o1 (configuration not stated)	inactive	
COc1ccc(NC(=O)c2ccc(CNc3c(NC4CCCCC4)c(=O)c3=O)cc2)cc1OC	inconclusive: 7.06 µM [inhibitor, full curve, poor fit]	
O=[N+]([O-])c1ccc(C2CC(c3ccccc3)=Nc3ccccc3S2)cc1 (configuration not stated)	inconclusive: 17.7 µM [inhibitor, single point]	
COc1ccc(NC(=O)C2CCCN2c2ccc(OC)c(OC)c2)cc1OC (configuration not stated)	inconclusive: 17.7 µM [inhibitor, partial curve]	
O=C(C[n+]1ccc(CCSc2ccc(F)cc2)cc1)c1ccccc1	inconclusive: 17.7 µM [inhibitor, partial curve]	
CC1CCC(C(C)C)C(=O)/C1=C\c1ccc(NC(=O)CCC(=O)O)cc1 (configuration not stated)	inconclusive: 17.7 µM [activator, single point]	
Cc1ccc(C(=O)Nc2nc(=O)n(C(=O)c3ccccc3Cl)s2)cc1	inconclusive: 12.6 µM [inhibitor, partial curve]	
Cc1ccc(NC(=O)CSC2=C(C#N)C(c3ccc4c(c3)OCO4)C3=C(CCCC3=O)N2)c(C)c1 (configuration not stated)	inactive	
COc1ccc(N(C(=O)c2snc(C(N)=O)c2N)C(C(=O)NCC2CCCO2)c2ccc(C)o2)cc1OC (configuration not stated)	inactive	
CCn1nc(C)c(CNC(=O)C2CCC(=O)N(CCc3ccc(OC)cc3)C2)c1C (configuration not stated)		inconclusive: 59.6% [activator]
CN1C2C=C3C(C#N)=C(N)C(C#N)(C#N)[C@@H](c4ccc(Cl)cc4)[C@@H]3C1CC2 (some centres not stated)	inconclusive: 15.8 µM [inhibitor, partial curve]	
O=C(N/N=C\c1ccccn1)c1ccccc1O	active: 15.8 µM	
